From PubChem BioAssay AID1963576 (National Center for Advancing Translational Sciences (NCATS), 2024)
Among all 46,000 compounds or so, about 60 (0.1%) were called active. About 3% were inconclusive and are not listed. Calls come from the whole dose curve; as a rule, active = well fitted inhibition curve with a large enough effect; inconclusive = small, poorly fitted or top-dose-only effect; inactive = no such curve, though single readings can be large or run the other way. Some of the results follow.

experiment: Primary qHTS assay for Inhibitors of ovarian cancer metastasis using an organotypic tumor microenvironment (TME) model.; note: nearly all actives have a fitted effect of over 65% in size;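 for activity change, negative = inhibition: plate controls were DMSO wells for no effect and tomatine positive control wells for full effect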; conditions: SKOV3ip1-GFP adhesion/invasion on 3D omental model, fluorescence; series mostly up to 45.8 µM; activity change, negative = inhibition: at the top concentration
Method in brief: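 Primary human omental fibroblast/mesothelial 3D culture pre-formed 48 h. SKOV3ip1-GFP cells added with compounds (0.36-46 umol/L), incubated 2 h RT/16 h 37 C, fixed; GFP cells quantified at 488/509 nm.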

outcome, inactive:
COc1ccccc1NC(=O)C1=C(C)Nc2nc(SCc3ccccc3F)nn2C1c1cccnc1 (stereo unspecified)
Cc1ccc(C)c(CSC2=NC(C)(C)Nc3ccccc32)c1
CC(C)CN(CC(C)C)c1nc(-c2ccc(Cl)cc2)nc2ccccc12
O=C(Nc1ccccc1C(=O)OCc1cc(=O)n2c3c(sc2n1)CCCC3)c1ccccc1
CCCCNC(=O)C(CC)Sc1nnc(-c2ccc(F)cc2)c(-c2ccc(F)cc2)n1 (stereo unspecified)
CCc1ccccc1NC(=O)Cn1nnc(-c2nc(-c3ccncc3)no2)c1N
O=C(NCc1ccccc1Cl)c1ccc2c(c1)nnn2C1CCCC1
CCCCC(=O)Nc1ccc2nc(SCC(=O)N3CCc4ccccc43)sc2c1
CC(=O)Nc1ccc(NC(=O)c2oc3c(c2C)-c2nn(Cc4ccccc4Cl)cc2CC3)cc1
CCc1ccc2nc(N(Cc3cccnc3)C(=O)c3ccc(C#N)cc3)sc2c1
CCOC(=O)N1CCc2c(sc3c2c(=O)n(Cc2ccccc2)c(=O)n3CC(=O)Nc2cccc(CC)c2)C1
Cc1cccc(NC(=O)Cn2nc(-c3ccccc3)c3cnc4ccccc4c32)c1
CCOc1ccc(-n2cc(-c3ccccc3)c3c(NCCc4ccccc4)ncnc32)cc1

Activity change, negative = inhibition, inactive:
CC(=O)c1cccc(NC(=O)CSc2nnc3ccc(-c4ccc(Cl)cc4)nn23)c1 2.84%
COc1ccc(CN(C)S(=O)(=O)c2nnc(NC(=O)C(C)C)s2)cc1OC -13.3%
CCOC(=O)c1sc2nc(C)n(CC(=O)Nc3cccc(Cl)c3)c(=O)c2c1C -1.99%
CCc1cccc(NC(=O)c2cc3c(=O)[nH]c4ccccc4c3n2C)c1 -12.8%
C=CCc1c(C)nc2nc(SCC(=O)Nc3cccc(Cl)c3)nn2c1C -28.3%
O=C(CCS(=O)(=O)c1ccccc1)N(Cc1cccnc1)c1nc2c(Cl)cccc2s1 2.88%
CCc1ccc(NC(=O)c2ccc3c(=O)n4nc(Nc5ccccc5C)sc4nc3c2)cc1 -18.6%
COc1ccc(Cl)cc1NC(=O)Cn1c(=O)n(Cc2nc(C)no2)c(=O)c2ccccc21 17.6%
O=C(NCCCN1CCN(c2ccc(F)cc2)CC1)C1COc2ccccc2C1 (stereo unspecified) 6.71%
Cc1c(Cl)cccc1NC(=O)c1ccc2c(c1)nnn2C1CCCC1 -14.8%
CCOC(=O)c1c(C)oc2nc(C)nc(N(CC(C)C)CC(C)C)c12 -6.8%
CN(C)C(=O)c1ccc(NC(=O)Cn2nc(-c3ccccc3)c3ccccc3c2=O)cc1 -4.71%
CCOC(=O)c1cccc(NS(=O)(=O)c2cc(-c3cnc(C)o3)ccc2OC)c1 5.74%
CCCOc1ccc(C2C(=O)N(C3CCCCC3)CC(=O)N2CCc2ccccc2)cc1OC (stereo unspecified) -9.32%
Clc1cccc(-n2ncc3c(NCCc4ccccc4)ncnc32)c1 3.89%
COc1ccccc1N1CCN(C(CNC(=O)C(=O)NCCN(C)C)c2cccnc2)CC1 (stereo unspecified) 11.6%
COc1cccc(CN2CCc3nc(Nc4ccc5c(c4)OCCO5)ncc3C2)c1OC 10.7%
CC(=O)Nc1ccc(OCc2cc(=O)n3ccccc3n2)cc1 2.15%
Cc1cccc(NC(=O)c2c(NC(=O)c3cccs3)sc3c2CCC(C)C3)c1 (stereo unspecified) 14.5%
CCOC(=O)c1c(NC(=O)COc2cc(C)ccc2C(C)C)sc2c1CCCC2 -0.94%
Cc1cccc(NC(=O)CSc2nc(=O)n(Cc3ccncc3)c3c2CCC3)c1C 1.41%
CCOc1ccc(NC(=O)c2cc(=O)c3cc(CC)ccc3o2)cc1 2.84%
Cc1ccc(-c2noc(-c3ccccc3NC(=O)C3CC(=O)N(c4cccc(C)c4)C3)n2)cc1 (stereo unspecified) -0.41%
Oc1ccc(/C=C/c2nc(-c3ccccc3O)n(-c3ccccc3)n2)c(O)c1 -6.24%
CCOc1ccc(NC(=O)CSc2nc(-c3cccs3)cc(C(F)(F)F)c2C#N)cc1 4.37%
CCc1ccc(C2=C(C)C(N3CCC(C(=O)Nc4cccc(OC)c4)CC3)=NS2(=O)=O)cc1 -20.9%
Cc1ccc(NC(=O)C2CCN(S(=O)(=O)c3ccc4c(c3)CCCC(=O)N4)CC2)c(Cl)c1 39.7%
COc1cc(NS(=O)(=O)c2ccc3c(c2)CC(=O)N3)cc(OC)c1OC 13.5%
COc1ccccc1NC(=O)CSC1=Nc2ccccc2C2=NC(CC(=O)NCCc3ccccc3)C(=O)N12 (stereo unspecified) -9.14%
CCOc1ccc(Nc2c(S(=O)(=O)c3ccc(C)cc3)cnc3cc(OC)c(OC)cc23)cc1 -22%
COc1ccc(CCNC(=O)c2ccc3c(c2)sc2nc(-c4ccc(C)cc4)cn23)cc1OC 9.43%
COc1cccc2c1Oc1ncccc1N(c1ccc(C(=O)NCc3ccccc3C)s1)C2 3.52%
Cc1ccc(NC(=O)c2c(C)oc3ncn(C)c(=O)c23)cc1F 12.6%
CCCCC(=O)Nc1ccc2nc(SCC(=O)N3CCOCC3)sc2c1 4.91%
COc1cc(NS(=O)(=O)c2ccc3[nH]c(=O)[nH]c3c2)cc(OC)c1 15.9%
CCOc1ccc(NC(=O)CN2CCN(CC(=O)Nc3ccc(N(CC)CC)cc3)CC2)cc1 11.4%
O=C(NC1(C(F)(F)F)C(=O)Nc2c1c(=O)[nH]c(=O)n2CCc1ccccc1)c1ccc(Cl)cc1 (stereo unspecified) -1.12%
Cc1cccc(-c2nc3c4ccccc4nc(N4CCN(c5ccc(F)cc5)CC4)n3n2)c1 19.7%
COc1ccccc1C(=O)n1nc(-c2cccnc2)nc1NCc1ccccc1 1.76%
Cc1ccc(OCC(=O)Nc2nnc(SCc3cc(=O)c4ccccc4[nH]3)s2)cc1C 1.96%
Cc1ccc(Cl)cc1NC(=O)c1ccc(NC(=O)N2CCSc3ncccc32)cc1 -0.759%
CC1=C(c2ccc(C(C)C)cc2)S(=O)(=O)N=C1N1CCN(c2ccc(F)cc2)CC1 -18.4%
O=C(CCCc1ccccc1)NC1CC(=O)N(c2ccc(Cl)cc2)C1 (stereo unspecified) 0.62%
COc1ccc(NC(=O)c2coc(=O)c3ccccc23)cc1OC 6.07%
CC1=Nc2cc(C(=O)NC3CCCCC3)ccc2Sc2ccc(Cl)cc21 -5.33%
Cc1ccc(N2CCN(C(=O)c3nn(C)c4c3CS(=O)(=O)c3ccccc3-4)CC2)c(C)c1 0.408%
Cc1ccc(Nc2ccc3cc(S(=O)(=O)N4CCC(C)CC4)ccc3n2)c(Cl)c1 -3.1%
CCc1cccc(NC(=O)CCn2c(=O)c3cccn3c3cccnc32)c1 -3.13%
